Assay results from PubChem BioAssay AID1745845 (National Center for Advancing Translational Sciences (NCATS), 2022).
Where “and” joins values, the source holds several entries; their conditions need not be identical. Equal values may be shown once. Hit rate of the full screen: of about 360,000 compounds, about 2,600 (0.72%) were called active. The shares of active, inactive and inconclusive entries below differ from those in the screen. The call rests on the fitted dose curve; in most records, active means well fitted inhibition curve with a large enough effect; inconclusive means small, poorly fitted or top-dose-only effect; inactive means no such curve, though single readings can be large or run the other way. Potencies beside an inconclusive call are fits to weak or partial responses and may not hold up. Some compounds were tested as several samples or in several runs, with calls that do not always agree.
Potency means the concentration at half of the fitted maximal effect; tags describe the fitted curve by direction and shape.

Test: Primary qHTS for Inhibitors of ATXN expression; further: nearly all actives have a fitted effect of over 55% in size
Conditions: HEK-293 ATXN2-luciferase reporter, luminescence, 24 h; series mostly up to 57 µM
Procedure, shortened: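 ATXN2-luciferase reporter cells (luciferase flanked by upstream and downstream ATXN2 gene portions) were treated 24 h at 37 °C with compounds at up to 57 uM. SteadyGlo luminescence gave expression; GF-AFC fluorescence gave viability.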
In the case of `O=c1ncn2nc(Sc3ccc(F)cc3F)ccc2c1-c1c(Cl)cccc1Cl`, the Potency is reported as inconclusive: 34.3 µM [inhibitor, single point]. In the case of `Cc1c(-c2ccccn2)c(=O)[nH]n1-c1ccc(F)cc1`, the Potency is reported as inconclusive: 12.6 µM [inhibitor, single point]. In the case of `Cc1c(NC(=O)c2cccc(NC(=O)COc3ccccc3C#N)c2)c(=O)n(-c2ccccc2)n1C`, the Potency is reported as inconclusive: 15.8 µM [inhibitor, partial curve, poor fit]. In the case of `Oc1ccc2ccccc2c1/C=N/Nc1nnc(-c2ncc[nH]2)c2ccccc12`, the Potency is reported as inconclusive: 5.62 µM [inhibitor, full curve, poor fit]. For `COc1ccc([N+](=O)[O-])cc1NC(=O)Nc1cccc(Cl)c1`, the Potency was inconclusive: 14.1 µM [inhibitor, partial curve, poor fit]. For `CCCCCCN1CCN(C2CN(C3CCCCC3)S(=O)(=O)C2)CC1` (stereo not given), the Potency was “inactive”. In the case of `Cc1ccc(CNC(=O)C(=O)NCC(c2cccnc2)N2CCN(c3ccc(F)cc3)CC2)cc1` (stereo not given), the Potency is reported as inconclusive: 17.8 µM [inhibitor, partial curve, poor fit]. With `CC(C)=CCCC(C)=CCCC(C)=CCSc1ccccc1C(=O)O` the Potency was inconclusive: 27.3 µM [inhibitor, partial curve, poor fit]. In the case of `O=C(CN1CCCC1)N/N=C/c1c(O)ccc2ccccc12`, the Potency is reported as active: 2.82 µM. With `CN(C)c1ccc(P(=O)(OC2CCCCC2)C(Nc2ccccc2)c2cccnc2)cc1` (stereo not given) the Potency was inconclusive: 9.47 µM [inhibitor, partial curve, poor fit]. For `COc1cc2c(-c3ccccc3O)nc3c(c(C)nn3-c3ccccc3)c2cc1OC`, the Potency was inconclusive: 39.8 µM [inhibitor, single point]. With `CCCCC1CCC(C(=O)N(CC(C)C)c2c(N)n(Cc3ccccc3)c(=O)[nH]c2=O)CC1` (stereo not given) the Potency was inconclusive: 10 µM [inhibitor, partial curve, poor fit]. In the case of `O=C(c1ccc(Cl)cc1)N1CCN(c2ccc([N+](=O)[O-])c(NCc3cccnc3)c2)CC1`, the Potency is reported as inconclusive: 11.2 µM [inhibitor, partial curve, poor fit]. For `CC[n+]1c(/C=C/N(C)c2ccccc2)oc2ccccc21`, the Potency was inconclusive: 17.8 µM [inhibitor, partial curve, poor fit]. With `Cc1cc(C)n(Cc2ccc(NC(=O)c3ccc(COc4ccccc4Br)cc3)cc2)n1` the Potency was inconclusive: 15.8 µM [inhibitor, partial curve, poor fit]. In the case of `COc1ccc(NC(=O)c2sc(Cl)nc2-c2ccccc2)cc1`, the Potency is reported as “inactive”. In the case of `O=C(CNc1ccc(F)cc1)N/N=C/c1c(O)ccc2ccccc12`, the Potency is reported as active: 4.47 µM. For `CC1(C)Oc2cc3oc(-c4cc(O)cc(O)c4)cc3cc2CC1O` (stereo not given), the Potency was inconclusive: 39.8 µM [inhibitor, single point]. For `CCOc1cc(C(=S)N2CCCCC2)ccc1OS(=O)(=O)c1ccc(Cl)cc1`, the Potency was “inactive”. In the case of `O=c1oc2c(-c3cccc(F)c3)cc(O)cc2s1`, the Potency is reported as inconclusive: 14.1 µM [inhibitor, partial curve, poor fit]. In the case of `Cc1ccc(-c2nc3c(C)cccn3c2Nc2ccccc2C)s1`, the Potency is reported as “inactive”. In the case of `CN(C)CCCN(C(=O)c1ccco1)c1nc2cc3c(cc2s1)OCO3`, the Potency is reported as active: 14.1 µM. For `O=C(O)c1cccc(Cn2c(Cl)c(/C=N/NC(=O)c3ccc(O)cc3)sc2=O)c1`, the Potency was “inactive”. In the case of `NC(COCc1ccccc1)c1csc(Nc2nccc(C(F)(F)F)n2)n1` (stereo not given), the Potency is reported as “inactive”. For `CCOc1ccc(/C=C2\SC(=O)N(CCNC(=O)C3COc4ccccc4O3)C2=O)cc1OC` (stereo not given), the Potency was inconclusive: 25.1 µM [inhibitor, single point]. For `CCCCOc1ccc(/C=C/C2=CC(C)(C)NC(=S)N2)cc1OCC`, the Potency was “inactive”. For `O=C(Nc1ccccc1N1CCCCC1)c1ccc(F)cc1`, the Potency was “inactive”. In the case of `C[C@@H]1CC(=O)NN=C1c1ccc(NN=C(C#N)C#N)cc1`, the Potency is reported as “inactive and active: 27.3 µM”. In the case of `CCOc1ccccc1NS(=O)(=O)c1ccc2[nH]c3c(c2c1)CCCCC3`, the Potency is reported as inconclusive: 39.8 µM [inhibitor, single point]. In the case of `CCc1nc2ccc(C(=O)Nc3cccc(OC)c3)cn2c1N(C)Cc1ccc(OC)cc1`, the Potency is reported as inconclusive: 39.8 µM [inhibitor, partial curve, poor fit]. With `CCN(CC)S(=O)(=O)c1ccc(N2CCN(CCOc3ccc(OC)cc3)CC2)nc1` the Potency was inconclusive: 22.4 µM [inhibitor, partial curve, poor fit]. For `O=C(CNCc1ccc(F)cc1)Nc1ccc(S(=O)(=O)N2CCOCC2)cc1`, the Potency was “inactive”. With `CC1=NN(c2nc(-c3ccc(C)cc3)cs2)C(=O)C1N=Nc1ccccc1O` (stereo not given) the Potency was inconclusive: 11.2 µM [inhibitor, partial curve, poor fit]. In the case of `Cc1ccc2nc(-c3ccccn3)[nH]c2c1`, the Potency is reported as inconclusive: 11.2 µM [inhibitor, single point]. For `Cc1ccc(NC(=O)NCCOCCn2c(=O)oc3ccccc32)cc1C`, the Potency was “inactive”. With `CC(C)(C)c1ccc(C(=O)NC2(C(F)(F)F)NC(=O)N(CCc3ccccc3)C2=O)cc1` (stereo not given) the Potency was inconclusive: 39.8 µM [inhibitor, single point]. With `CCCNC(=O)c1ccccc1NC(=O)c1nsc2ccccc12` the Potency was “inactive”. With `CCCCC[C@H]1CN(Cc2ccccc2)C(=O)[C@@H]1CC(=O)NCc1ccccc1` the Potency was inconclusive: 25.1 µM [inhibitor, single point]. In the case of `N#CC1=C(N)N2C(=C(C#N)C1c1cccc(Br)c1)Nc1ccccc12` (stereo not given), the Potency is reported as inconclusive: 7.52 µM [inhibitor, full curve, poor fit]. For `CN(Cc1ccccc1)C1=CC(=[N+]2CCCCC2)CC(C)(C)C1`, the Potency was inconclusive: 2.51 µM [inhibitor, partial curve]. For `COc1ccc(C(C(=O)NC2CCCC2)N(Cc2ccco2)C(=O)c2snc(C(N)=O)c2N)cc1OC` (stereo not given), the Potency was “inactive”. In the case of `CCc1ccc(OCC(=O)Nc2cc(-c3ccc(C)cc3)no2)cc1`, the Potency is reported as “inactive”. With `C=CCNC(=O)CN1CCC(NC(=O)c2ccco2)CC1` the Potency was “inactive”. With `O=C(Nc1cccc(C(F)(F)F)c1)N1CCC(c2nc(-c3ccc(F)cc3)no2)CC1` the Potency was inconclusive: 22.4 µM [inhibitor, single point]. In the case of `Cc1ccc(N(C)S(=O)(=O)c2cccc(C(=O)Nc3ccc(N4CCOCC4)cc3)c2)cc1`, the Potency is reported as inconclusive: 11.9 µM [inhibitor, single point]. For `Cc1ccccc1NC(=O)CSc1nc(-c2ccccc2)cn1-c1ccccc1F`, the Potency was inconclusive: 25.1 µM [inhibitor, single point]. For `CN(C)CCCNC(=O)c1ccc(-c2cc(O)c3ncccc3c2)cc1`, the Potency was inconclusive: 27.3 µM [inhibitor, partial curve] and inconclusive: 28.2 µM [inhibitor, single point]. For `COc1ccc(NC(=O)c2sc3nc4c(cc3c2N)CCCCCC4)cc1`, the Potency was inconclusive: 39.8 µM [inhibitor, single point]. For `Nc1ccn([C@@H]2O[C@H](C(=O)NCc3ccc4c(c3)OCO4)[C@@H](O)[C@H]2O)c(=O)n1`, the Potency was “inactive”. In the case of `Cc1ccc(O)c(/C=N/NC(=O)c2[nH]ncc2Br)c1`, the Potency is reported as inconclusive: 0.398 µM [inhibitor, full curve, poor fit]. For `COc1ccc(C)cc1NS(=O)(=O)c1ccc2c3c(cccc13)C(=O)N2`, the Potency was active: 28.2 µM. In the case of `COc1ccc(C(=O)c2ccc3oc(-c4ccc(OC)cc4)c(-c4ccc(O)cc4)c3c2)cc1`, the Potency is reported as inconclusive: 25.1 µM [inhibitor, single point]. With `CCOC(=O)N1CCC(N(CCOC)C(=O)Nc2ccc(CC)cc2)CC1` the Potency was “inactive”. In the case of `Cc1ccc(-c2nc(SCC(=O)NCC3CCCO3)c3c(=O)n(C)c(=O)n(C)c3n2)cc1` (stereo not given), the Potency is reported as “inactive”. For `COc1cc2[nH]c3c(=O)n4c(nc3c2cc1OC)SCCC4`, the Potency was “inactive”. With `CC(C)(C)S(=O)N1Cc2cc(C(=O)NCc3ccc(Oc4ccccc4)cc3)nc(-c3cccc(-c4cc5ccccc5o4)c3)c2[C@@H]1CCO` (stereo not given in full) the Potency was inconclusive: 35.5 µM [inhibitor, single point]. For `CCc1nnc(NC(=O)C2Cc3ccccc3CN2S(=O)(=O)c2c(C)c(C)cc(C)c2C)s1` (stereo not given), the Potency was “inactive”. For `CCn1c(=O)cc(C(=O)OC)sc1=Nc1ccc(F)c(F)c1`, the Potency was inconclusive: 23.8 µM [inhibitor, single point]. With `Cc1ccc(CNC(=O)[C@]2(C)CCC[C@@]3(C)C4CC[C@@]5(C)C[C@]4(CCC32)CC5=O)cc1` (stereo not given in full) the Potency was inconclusive: 39.8 µM [inhibitor, partial curve, poor fit]. With `CCOc1ccc(C(=O)NCCc2ccccc2)cc1` the Potency was inconclusive: 12.6 µM [inhibitor, single point]. With `C[n+]1c(-c2ccccc2)cc2c(=Cc3ccc([N+](=O)[O-])cc3)c3ccccc3n21` the Potency was inconclusive: 18.9 µM [inhibitor, partial curve, poor fit]. For `O=C(CN1CCN(S(=O)(=O)c2cc(Br)ccc2Br)CC1)NCc1ccccc1Cl`, the Potency was “inactive”. In the case of `O=S(=O)(c1ccc(NC(=S)NCCC(c2ccccc2)c2ccccc2)cc1)N1CCOCC1`, the Potency is reported as inconclusive: 17.8 µM [inhibitor, partial curve, poor fit]. With `COC(=O)c1ccc(NS(=O)(=O)c2ccc3[nH]c4c(c3c2)CCCC4)cc1` the Potency was inconclusive: 39.8 µM [inhibitor, single point]. With `CCCCn1c(N)c(-c2nc3ccccc3s2)c2c([N+](=O)[O-])nn(C)c(=O)c21` the Potency was inconclusive: 39.8 µM [inhibitor, partial curve, poor fit].
